Results taken from a compilation of properties of binary mixtures (doi:10.1021/acs.jpcb.5b11900).
Some of these densities may be calculated back from excess volumes.

Assay: xn = mol fraction of the nth substance listed
Conditions: 101 kPa

CCC[NH3+].O=[N+]([O-])[O-] + CCCC[NH3+].O=[N+]([O-])[O-]
x1 = 0.5
Conditions | mass density [kg/m3]
298.15 K | 1126.6
303.15 K | 1123.4
308.15 K | 1120.4
318.15 K | 1114.3
333.15 K | 1105.4
338.15 K | 1102.5
348.15 K | 1096.7
353.15 K | 1093.8

CC[NH3+].O=[N+]([O-])[O-] + CC[NH+](CC)CC.O=[N+]([O-])[O-]
x2 = 0
Conditions | mass density [kg/m3]
303.15 K | 1209.3
308.15 K | 1206.2
318.15 K | 1200.1
328.15 K | 1194.1
333.15 K | 1191.2
338.15 K | 1188.2
343.15 K | 1185.3
348.15 K | 1182.4
353.15 K | 1179.5

CC[NH+](CC)CC.O=[N+]([O-])[O-] + CC[NH3+].O=[N+]([O-])[O-]
Conditions | mass density [kg/m3]
293.15 K, x1 = 0.0499 | 1200.8
293.15 K, x1 = 0.0999 | 1188.1
293.15 K, x1 = 0.3995 | 1135.1
293.15 K, x1 = 0.4472 | 1128.4
293.15 K, x1 = 0.5003 | 1122.4
293.15 K, x1 = 0.5485 | 1116.8
298.15 K, x1 = 0.0499 | 1197.7
298.15 K, x1 = 0.0999 | 1185
298.15 K, x1 = 0.1997 | 1165
298.15 K, x1 = 0.25 | 1155.3
298.15 K, x1 = 0.2993 | 1142.2
298.15 K, x1 = 0.3475 | 1139.5
298.15 K, x1 = 0.3995 | 1132.1
298.15 K, x1 = 0.4472 | 1125.3
298.15 K, x1 = 0.5003 | 1119.4
298.15 K, x1 = 0.5485 | 1113.7
303.15 K, x1 = 0.0499 | 1194.6
303.15 K, x1 = 0.0999 | 1182
303.15 K, x1 = 0.149 | 1169.4
303.15 K, x1 = 0.1997 | 1161.9
303.15 K, x1 = 0.25 | 1152.3
303.15 K, x1 = 0.2993 | 1139.2
303.15 K, x1 = 0.3995 | 1129.1
303.15 K, x1 = 0.4472 | 1122.3
303.15 K, x1 = 0.5003 | 1116.4
303.15 K, x1 = 0.5485 | 1110.7
308.15 K, x1 = 0.0499 | 1191.6
308.15 K, x1 = 0.0999 | 1178.9
308.15 K, x1 = 0.149 | 1166.4
308.15 K, x1 = 0.1997 | 1158.9
308.15 K, x1 = 0.25 | 1149.3
308.15 K, x1 = 0.2993 | 1136.2
308.15 K, x1 = 0.3475 | 1133.6
308.15 K, x1 = 0.3995 | 1126.1
308.15 K, x1 = 0.4472 | 1119.4
308.15 K, x1 = 0.5003 | 1113.4
308.15 K, x1 = 0.5485 | 1107.7
313.15 K, x1 = 0.0499 | 1188.6
313.15 K, x1 = 0.0999 | 1176
313.15 K, x1 = 0.149 | 1163.4
313.15 K, x1 = 0.1997 | 1156
313.15 K, x1 = 0.25 | 1146.4
313.15 K, x1 = 0.2993 | 1133.3
313.15 K, x1 = 0.3475 | 1130.6
313.15 K, x1 = 0.5003 | 1110.5
313.15 K, x1 = 0.5485 | 1104.8
318.15 K, x1 = 0.0499 | 1185.6
318.15 K, x1 = 0.0999 | 1173
318.15 K, x1 = 0.149 | 1160.4
318.15 K, x1 = 0.1997 | 1153
318.15 K, x1 = 0.25 | 1143.4
318.15 K, x1 = 0.2993 | 1130.4
318.15 K, x1 = 0.3475 | 1127.7
318.15 K, x1 = 0.3995 | 1120.2
318.15 K, x1 = 0.4472 | 1113.5
318.15 K, x1 = 0.5003 | 1107.5
318.15 K, x1 = 0.5485 | 1101.8
323.15 K, x1 = 0.0499 | 1182.6
323.15 K, x1 = 0.149 | 1157.5
323.15 K, x1 = 0.1997 | 1150.1
323.15 K, x1 = 0.25 | 1140.5
323.15 K, x1 = 0.2993 | 1127.5
323.15 K, x1 = 0.3475 | 1124.8
323.15 K, x1 = 0.4472 | 1110.6
323.15 K, x1 = 0.5485 | 1098.9
328.15 K, x1 = 0.0499 | 1179.7
328.15 K, x1 = 0.0999 | 1167.1
328.15 K, x1 = 0.1997 | 1147.2
328.15 K, x1 = 0.25 | 1137.7
328.15 K, x1 = 0.2993 | 1124.6
328.15 K, x1 = 0.3475 | 1122
328.15 K, x1 = 0.4472 | 1107.7
333.15 K, x1 = 0.0499 | 1176.8
333.15 K, x1 = 0.0999 | 1164.3
333.15 K, x1 = 0.149 | 1151.7
333.15 K, x1 = 0.25 | 1134.8
333.15 K, x1 = 0.2993 | 1121.8
333.15 K, x1 = 0.3475 | 1119.1
333.15 K, x1 = 0.3995 | 1111.6
333.15 K, x1 = 0.4472 | 1104.9
338.15 K, x1 = 0.0499 | 1173.9
338.15 K, x1 = 0.0999 | 1161.4
338.15 K, x1 = 0.149 | 1148.9
338.15 K, x1 = 0.1997 | 1141.5
343.15 K, x1 = 0.0999 | 1158.5
343.15 K, x1 = 0.149 | 1146
348.15 K, x1 = 0.0499 | 1168.2
348.15 K, x1 = 0.149 | 1143.2
353.15 K, x1 = 0.0999 | 1152.9
353.15 K, x1 = 0.149 | 1140.4

CC[NH3+].O=[N+]([O-])[O-] + CC[NH2+]CC.O=[N+]([O-])[O-]
x2 = 0
Conditions | mass density [kg/m3]
293.15 K | 1215.6
298.15 K | 1212.4
303.15 K | 1209.3
308.15 K | 1206.2
313.15 K | 1203.1
318.15 K | 1200.1
328.15 K | 1194.1
338.15 K | 1188.2
348.15 K | 1182.4
353.15 K | 1179.5

CCCC[NH3+].O=[N+]([O-])[O-] + CC[NH3+].O=[N+]([O-])[O-]
mass density [kg/m3]
Conditions | x2 = 0.25 | x2 = 0.5 | x2 = 0.75
293.15 K | 1129.4 | 1154 | 1180.5
298.15 K | 1126.3 | 1150.9 | 1177.4
303.15 K | 1123.1 | 1147.8 | –
308.15 K | – | 1144.8 | 1171.2
313.15 K | 1117 | 1141.8 | 1168.2
318.15 K | 1113.9 | 1138.8 | 1165.2
323.15 K | – | 1135.9 | 1162.2
328.15 K | 1107.9 | 1132.9 | 1159.3
333.15 K | – | 1130 | 1156.3
338.15 K | – | 1127.1 | –
343.15 K | – | 1124.3 | 1150.6
348.15 K | 1096.2 | 1121.4 | 1147.7
353.15 K | – | – | 1144.8

CC[NH2+]CC.O=[N+]([O-])[O-] + CC[NH3+].O=[N+]([O-])[O-]
mass density [kg/m3]
Conditions | x1 = 0.0499 | x1 = 0.0998 | x1 = 0.1499 | x1 = 0.1999 | x1 = 0.2501 | x1 = 0.2998 | x1 = 0.3501
293.15 K | 1206.2 | – | 1189.4 | 1182.1 | 1174 | 1169.1 | –
298.15 K | 1203.1 | 1195 | 1186.3 | 1179 | – | 1166 | 1157.9
303.15 K | 1200 | 1191.9 | 1183.2 | 1176 | 1167.8 | 1162.9 | 1154.8
308.15 K | – | 1188.8 | 1180.2 | 1172.9 | 1164.8 | 1159.9 | 1151.8
313.15 K | 1193.8 | 1185.8 | 1177.2 | – | 1161.8 | 1156.9 | –
318.15 K | 1190.8 | – | – | 1166.9 | 1158.8 | – | 1145.8
323.15 K | 1187.8 | 1179.8 | – | – | 1155.9 | 1151 | 1142.9
328.15 K | 1184.9 | – | 1168.3 | 1161.1 | 1152.9 | – | 1140
333.15 K | 1181.9 | 1174 | 1165.4 | 1158.2 | 1150 | 1145.2 | 1137.1
338.15 K | 1179 | 1171.1 | 1162.5 | 1155.3 | 1147.1 | – | 1134.2
343.15 K | – | 1168.2 | – | 1152.4 | 1144.3 | 1139.5 | 1131.3
348.15 K | – | 1165.3 | 1156.7 | 1149.6 | 1141.5 | 1136.6 | 1128.4
353.15 K | 1170.4 | – | – | – | 1138.6 | 1133.8 | –

CC[N+](CC)(CC)CC.O=[N+]([O-])[O-] + CC[NH3+].O=[N+]([O-])[O-]
mass density [kg/m3]
Conditions | x1 = 0.0501 | x1 = 0.1 | x1 = 0.15 | x1 = 0.2001 | x1 = 0.2567 | x1 = 0.2995 | x1 = 0.35
293.15 K | 1198.3 | 1184 | – | 1160.6 | 1150.1 | 1142.8 | 1135.9
298.15 K | 1195.3 | 1180.9 | 1168.8 | 1157.7 | 1147.2 | 1139.9 | 1133.1
303.15 K | – | 1178 | – | 1154.7 | 1144.3 | 1137 | –
308.15 K | 1189.2 | 1175 | 1162.9 | – | 1141.5 | 1134.2 | 1127.4
313.15 K | 1186.2 | – | 1160 | 1149 | 1138.7 | 1131.4 | 1124.6
318.15 K | 1183.3 | 1169.2 | 1157.2 | 1146.2 | 1135.9 | – | 1121.8
323.15 K | 1180.3 | 1166.3 | – | 1143.4 | 1133.1 | 1125.9 | 1119.1
328.15 K | 1177.4 | 1163.5 | 1151.5 | – | – | 1123.2 | –
333.15 K | 1174.6 | 1160.6 | – | 1137.9 | 1127.7 | 1120.5 | 1113.7
338.15 K | 1171.7 | 1157.8 | 1146 | 1135.2 | 1125 | 1117.8 | 1111
343.15 K | 1168.8 | 1155 | – | 1132.5 | 1122.3 | 1115.1 | 1108.4
348.15 K | 1166 | 1152.2 | 1140.5 | – | 1119.6 | 1112.5 | –
353.15 K | 1163.2 | – | 1137.8 | 1127.1 | 1117 | 1109.8 | –

CC[NH3+].O=[N+]([O-])[O-] + CC[N+](CC)(CC)CC.O=[N+]([O-])[O-]
x2 = 0
Conditions | mass density [kg/m3]
293.15 K | 1215.6
298.15 K | 1212.4
303.15 K | 1209.3
308.15 K | 1206.2
313.15 K | 1203.1
318.15 K | 1200.1
323.15 K | 1197.1
328.15 K | 1194.1
333.15 K | 1191.2
343.15 K | 1185.3
348.15 K | 1182.4
353.15 K | 1179.5

CCC[NH3+].O=[N+]([O-])[O-] + CC[NH3+].O=[N+]([O-])[O-]
x2 = 0.5
Conditions | mass density [kg/m3]
298.15 K | 1178.5
308.15 K | 1172.4
313.15 K | 1169.3
323.15 K | 1163.4
328.15 K | 1160.4
333.15 K | 1157.5
338.15 K | 1154.6
343.15 K | 1151.7
348.15 K | 1148.8
